These are yes or no findings as the source states them, for the method shown. Binding seen in cells or lysates may run through a third protein. Some results given as binding are weak or reduced against the parent protein; the word gives no strength.
What was measured:
[1] = target: PI3K p110α catalytic subunit, endogenous in HuH7 cells (human (endogenous in HuH7)) (UniProt P42336); assay: co-IP; Lysates of HSP20-overexpressing (or empty vector) HuH7 cells in TNE buffer (10 mM Tris-HCl pH 7.8, 1% Nonidet P-40, 150 mM NaCl, 1 mM EDTA, 1 mM DTT); antibody overnight at 4°C, Dynabeads protein A; Western blot; IP with antibodies to the partner or to HSP20
[2] = target: PI3K p110β catalytic subunit, endogenous in HuH7 cells (human (endogenous in HuH7)) (UniProt P42338); assay: as above
[3] = target: PI3K p85 regulatory subunit, endogenous in HuH7 cells (human (endogenous in HuH7)) (UniProt P27986); assay: as above
[4] = target: Phosphatase and tensin homologue (PTEN), endogenous in HuH7 cells (human (endogenous in HuH7)) (UniProt P60484); assay: as above
[5] = target: PI3K p110α catalytic subunit, endogenous in human HCC tissue (human (endogenous in HCC tissue)) (UniProt P42336); assay: co-IP; Lysate of a stage II human HCC tissue in TNE buffer; IP with antibodies to PI3K p85, p110α or p110β overnight at 4°C, Dynabeads protein A; Western blot with HSP20 antibodies
[6] = target: PI3K p110β catalytic subunit, endogenous in human HCC tissue (human (endogenous in HCC tissue)) (UniProt P42338); assay: as above
[7] = target: PI3K p85 regulatory subunit, endogenous in human HCC tissue (human (endogenous in HCC tissue)) (UniProt P27986); assay: as above

Sequences of proteins named here, by UniProt entry; tags and fusion partners are left off.
UniProt P42336: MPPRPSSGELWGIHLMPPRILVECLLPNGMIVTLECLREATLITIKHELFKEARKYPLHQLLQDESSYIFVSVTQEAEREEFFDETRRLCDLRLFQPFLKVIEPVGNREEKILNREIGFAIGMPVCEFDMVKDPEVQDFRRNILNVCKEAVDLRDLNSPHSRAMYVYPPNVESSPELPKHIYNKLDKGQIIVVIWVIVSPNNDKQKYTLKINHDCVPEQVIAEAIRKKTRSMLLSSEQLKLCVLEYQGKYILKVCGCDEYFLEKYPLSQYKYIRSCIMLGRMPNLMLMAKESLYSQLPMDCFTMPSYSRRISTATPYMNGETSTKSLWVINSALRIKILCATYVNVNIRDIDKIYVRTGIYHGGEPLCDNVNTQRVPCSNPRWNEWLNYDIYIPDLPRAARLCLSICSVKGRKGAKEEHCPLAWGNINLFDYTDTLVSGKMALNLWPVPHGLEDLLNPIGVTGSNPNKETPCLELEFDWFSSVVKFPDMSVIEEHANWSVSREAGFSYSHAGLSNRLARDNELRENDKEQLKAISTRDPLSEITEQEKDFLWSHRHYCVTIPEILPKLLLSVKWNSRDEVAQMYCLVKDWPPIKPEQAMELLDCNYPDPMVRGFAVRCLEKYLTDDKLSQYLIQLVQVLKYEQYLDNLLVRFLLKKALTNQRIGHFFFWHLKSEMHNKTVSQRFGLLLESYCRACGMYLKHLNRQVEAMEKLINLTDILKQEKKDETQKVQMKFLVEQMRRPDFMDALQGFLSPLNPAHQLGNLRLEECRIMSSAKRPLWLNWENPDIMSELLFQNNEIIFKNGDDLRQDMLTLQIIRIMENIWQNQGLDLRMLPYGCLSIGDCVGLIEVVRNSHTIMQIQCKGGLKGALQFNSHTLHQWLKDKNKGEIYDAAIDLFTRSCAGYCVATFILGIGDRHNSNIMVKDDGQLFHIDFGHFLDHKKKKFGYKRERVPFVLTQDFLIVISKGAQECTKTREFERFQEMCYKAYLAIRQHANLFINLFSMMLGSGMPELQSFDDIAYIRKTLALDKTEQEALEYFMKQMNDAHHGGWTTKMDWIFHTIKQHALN
UniProt P42338: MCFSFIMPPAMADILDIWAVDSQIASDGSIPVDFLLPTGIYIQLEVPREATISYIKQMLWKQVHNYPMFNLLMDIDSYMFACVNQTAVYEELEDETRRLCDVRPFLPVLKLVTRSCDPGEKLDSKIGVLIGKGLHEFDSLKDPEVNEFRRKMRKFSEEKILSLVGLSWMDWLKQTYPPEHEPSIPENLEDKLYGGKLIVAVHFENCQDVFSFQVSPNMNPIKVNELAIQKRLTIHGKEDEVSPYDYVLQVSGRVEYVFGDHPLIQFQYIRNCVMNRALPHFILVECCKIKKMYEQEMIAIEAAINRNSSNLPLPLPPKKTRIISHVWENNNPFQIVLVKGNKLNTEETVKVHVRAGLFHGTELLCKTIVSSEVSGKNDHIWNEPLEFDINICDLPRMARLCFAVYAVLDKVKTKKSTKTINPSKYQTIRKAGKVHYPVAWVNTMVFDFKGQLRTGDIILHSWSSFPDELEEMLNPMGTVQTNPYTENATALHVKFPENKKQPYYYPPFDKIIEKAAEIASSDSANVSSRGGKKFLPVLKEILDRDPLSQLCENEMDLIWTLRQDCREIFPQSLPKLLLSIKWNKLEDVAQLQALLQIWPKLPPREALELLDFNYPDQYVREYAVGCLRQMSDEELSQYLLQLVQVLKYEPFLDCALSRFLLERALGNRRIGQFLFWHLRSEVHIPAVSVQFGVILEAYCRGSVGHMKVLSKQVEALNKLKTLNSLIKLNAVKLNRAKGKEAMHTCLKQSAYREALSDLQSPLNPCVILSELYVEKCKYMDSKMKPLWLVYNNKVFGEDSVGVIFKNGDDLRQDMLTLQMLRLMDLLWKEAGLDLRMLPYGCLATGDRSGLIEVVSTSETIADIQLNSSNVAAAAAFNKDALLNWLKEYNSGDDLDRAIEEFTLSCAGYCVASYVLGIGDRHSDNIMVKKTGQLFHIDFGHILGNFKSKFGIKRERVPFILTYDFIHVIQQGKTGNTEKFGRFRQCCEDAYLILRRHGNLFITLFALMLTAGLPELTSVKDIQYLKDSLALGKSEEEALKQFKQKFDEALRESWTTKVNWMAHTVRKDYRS
UniProt P27986: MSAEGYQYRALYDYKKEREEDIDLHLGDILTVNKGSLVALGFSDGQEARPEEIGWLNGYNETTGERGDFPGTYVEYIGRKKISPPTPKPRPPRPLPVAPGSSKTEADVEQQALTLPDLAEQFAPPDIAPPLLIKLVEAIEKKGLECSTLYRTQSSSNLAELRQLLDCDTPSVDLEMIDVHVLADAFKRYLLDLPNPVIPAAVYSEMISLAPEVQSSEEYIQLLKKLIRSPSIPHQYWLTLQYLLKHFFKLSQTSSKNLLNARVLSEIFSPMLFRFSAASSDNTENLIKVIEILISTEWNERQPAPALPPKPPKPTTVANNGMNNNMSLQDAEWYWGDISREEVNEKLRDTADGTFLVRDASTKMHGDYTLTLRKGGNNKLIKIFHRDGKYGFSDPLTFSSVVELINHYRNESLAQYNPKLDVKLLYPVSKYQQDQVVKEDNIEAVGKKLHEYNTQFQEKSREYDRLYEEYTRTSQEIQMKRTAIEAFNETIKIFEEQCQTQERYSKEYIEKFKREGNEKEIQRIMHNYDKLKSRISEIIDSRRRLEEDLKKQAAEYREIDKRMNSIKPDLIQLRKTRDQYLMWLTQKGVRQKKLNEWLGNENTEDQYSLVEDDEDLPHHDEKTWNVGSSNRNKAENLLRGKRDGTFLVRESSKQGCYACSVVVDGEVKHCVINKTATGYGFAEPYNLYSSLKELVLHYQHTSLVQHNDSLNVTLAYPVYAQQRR
UniProt P60484: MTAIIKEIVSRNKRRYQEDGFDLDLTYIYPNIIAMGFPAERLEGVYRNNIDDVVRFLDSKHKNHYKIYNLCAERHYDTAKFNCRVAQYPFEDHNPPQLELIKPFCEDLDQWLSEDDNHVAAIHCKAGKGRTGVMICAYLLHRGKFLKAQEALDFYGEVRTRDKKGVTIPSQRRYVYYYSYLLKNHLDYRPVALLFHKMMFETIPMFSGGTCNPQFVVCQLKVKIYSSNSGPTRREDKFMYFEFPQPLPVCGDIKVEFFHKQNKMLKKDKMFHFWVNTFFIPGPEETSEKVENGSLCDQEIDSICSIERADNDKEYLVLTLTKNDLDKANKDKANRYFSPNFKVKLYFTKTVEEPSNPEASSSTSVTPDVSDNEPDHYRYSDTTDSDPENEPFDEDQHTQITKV

| Binder | binding [1] | binding [2] | binding [3] | binding [4] | binding [5] | binding [6] | binding [7] |
| --- | --- | --- | --- | --- | --- | --- | --- |
| HSP20 (HSPB6), wild-type human, overexpressed in HuH7 cells (protein, UniProt O14558 1-160) MEIPVPVQPSWLRRASAPLPGLSAPGRLFDQRFGEGLLEAELAALCPTTLAPYYLRAPSVALPVAQVPTDPGHFSVLLDVKHFSPEEIAVKVVGEHVEVHARHEERPDEHGFVAREFHRRYRLPPGVDPAAVTSALSPEGVLSIQAAPASAQAPPPAAAK | binds | binds | binds | no binding | – | – | – |
| HSP20 (HSPB6), endogenous in human HCC tissue (protein, UniProt O14558 1-160) MEIPVPVQPSWLRRASAPLPGLSAPGRLFDQRFGEGLLEAELAALCPTTLAPYYLRAPSVALPVAQVPTDPGHFSVLLDVKHFSPEEIAVKVVGEHVEVHARHEERPDEHGFVAREFHRRYRLPPGVDPAAVTSALSPEGVLSIQAAPASAQAPPPAAAK | – | – | – | – | binds | binds | binds |
